Experimental findings from the antibiotic and cytotoxicity screens of Wong et al. (2023) are described below.

The list shows a part of the results.

One assay relates to HSkMC. In words: cytotoxicity call (relative viability < 0.9). The settings on record: 10 µM.
The next assay concerns S. aureus RN4220. Put plainly: growth inhibition call (relative growth <= 0.2). The conditions noted are these: 50 µM.

`Cc1noc(C)c1NC(=O)N[C@H]1C=C[C@H](CC(=O)N2CCN(C)CC2)O[C@H]1CO`: the cytotoxicity call with HSkMC is “inactive”. The growth inhibition call in the assay with S. aureus RN4220 is “inactive”.

On to `COc1ccc(S(=O)(=O)N(C)C[C@H]2Oc3ccc(NC(=O)CCCN(C)C)cc3C(=O)N([C@@H](C)CO)C[C@@H]2C)cc1`, for which the cytotoxicity call in the assay with HSkMC is “inactive”. Also, the growth inhibition call with S. aureus RN4220 was “inactive”.

Consider `Cc1ccc(S(=O)(=O)N(C)C[C@H]2OCCCC[C@H](C)Oc3ccc(NC(=O)Nc4ccc(F)cc4)cc3C(=O)N([C@@H](C)CO)C[C@H]2C)cc1`, for which the cytotoxicity call with HSkMC is “inactive”. Moreover, in the assay with S. aureus RN4220, the growth inhibition call was “inactive”.

`C[C@@H]1CN([C@H](C)CO)S(=O)(=O)c2ccc(Br)cc2O[C@H]1CN(C)Cc1cccc(C(=O)O)c1`: the cytotoxicity call with HSkMC is “inactive”. For the same molecule, the growth inhibition call with S. aureus RN4220 was “inactive”.

As to `C[C@@H]1CCCCO[C@H](CN(C)CC2CC2)[C@@H](C)CN([C@H](C)CO)C(=O)c2cc(NC(=O)Nc3ccc4c(c3)OCO4)ccc2O1`, the cytotoxicity call with HSkMC is “inactive”. The growth inhibition call in the assay with S. aureus RN4220 is “inactive”.

Take `NC(=O)CN1CCCCCC1=O`: the cytotoxicity call in the assay on HSkMC was “inactive”. In addition, in the assay on S. aureus RN4220, the growth inhibition call was “inactive”.

In the case of `C[C@H]1CN([C@@H](C)CO)C(=O)c2cccc(NC(=O)NC3CCCCC3)c2O[C@H]1CN(C)Cc1ccc(C(=O)Nc2ccccc2N)cc1`, the cytotoxicity call with HSkMC is “inactive”. Besides, the growth inhibition call in the assay on S. aureus RN4220 is “inactive”.

As to `CO[C@@H]1CN(C)C(=O)c2cc(NC(=O)NC3CCCCC3)ccc2OC[C@@H](C)N(CCc2ccccc2)C[C@@H]1C`, in the assay on HSkMC, the cytotoxicity call is “inactive”. Also, the growth inhibition call in the assay with S. aureus RN4220 was “inactive”.

In the case of `C[C@H](CO)N1C[C@H](C)[C@@H](CN(C)C(=O)Nc2cccc(Cl)c2Cl)OCc2ccccc2-c2ccccc2C1=O`, the cytotoxicity call with HSkMC was “inactive”. Further, in the assay on S. aureus RN4220, the growth inhibition call is “inactive”.

Take `C[C@@H]1CN([C@H](C)CO)C(=O)c2cc(NC(=O)Cc3ccccc3)ccc2O[C@@H](C)CCCCO[C@H]1CN(C)S(=O)(=O)c1ccc(F)cc1`: the cytotoxicity call in the assay on HSkMC is “inactive”. In addition, in the assay on S. aureus RN4220, the growth inhibition call was “inactive”.

Consider `O=C(C[C@H]1C[C@@H]2c3cc(NS(=O)(=O)c4ccc(F)cc4)ccc3O[C@@H]2[C@@H](CO)O1)NCc1ccc(Oc2ccccc2)cc1`, for which the cytotoxicity call in the assay with HSkMC was “inactive”. The growth inhibition call in the assay on S. aureus RN4220 was “inactive”.

For the molecule `CC(C)NC(=O)N1C[C@H]2[C@H](C(=O)N(C)Cc3ccccn3)CCS(=O)(=O)[C@H]2C1`, the cytotoxicity call in the assay with HSkMC is “inactive”. The growth inhibition call with S. aureus RN4220 was “inactive”.

Regarding `CN1C(=O)c2ccccc2C1=O`, the cytotoxicity call with HSkMC was “inactive”. For the same molecule, the growth inhibition call with S. aureus RN4220 was “inactive”.

On to `COc1ccc(S(=O)(=O)Nc2ccc3c(c2)C(=O)N([C@H](C)CO)C[C@H](C)[C@H](CN(C)C(=O)Nc2ccc4c(c2)OCO4)OCCCC[C@H](C)O3)cc1`, for which the cytotoxicity call with HSkMC is “inactive”. Further, the growth inhibition call with S. aureus RN4220 is “inactive”.

On to `Cn1c(=O)cc(N2CCC[C@@H](N)C2)n(Cc2cc(F)ccc2C#N)c1=O`, for which, in the assay on HSkMC, the cytotoxicity call is “inactive”. For the same molecule, the growth inhibition call in the assay with S. aureus RN4220 is “inactive”.

For the molecule `C[C@@H]1CCCCO[C@@H](CN(C)C(=O)Cc2ccccc2)[C@@H](C)CN([C@@H](C)CO)C(=O)c2cc(NC(=O)Nc3ccc(C(F)(F)F)cc3)ccc2O1`, in the assay with HSkMC, the cytotoxicity call is “inactive”. For the same molecule, the growth inhibition call with S. aureus RN4220 is “inactive”.

With `COc1ccc(CN(C)C[C@@H]2Oc3ccc(NC(=O)CCCN(C)C)cc3C(=O)N([C@@H](C)CO)C[C@H]2C)cc1`, the cytotoxicity call in the assay on HSkMC was “inactive”. For the same molecule, the growth inhibition call with S. aureus RN4220 is “inactive”.

Regarding `C[C@H](CO)N1C[C@H](C)[C@@H](CN(C)Cc2ccc(-c3ccccc3)cc2)Oc2ccc(NC(=O)Nc3cccc4ccccc34)cc2C1=O`, in the assay with HSkMC, the cytotoxicity call is “inactive”. In addition, the growth inhibition call in the assay on S. aureus RN4220 was “inactive”.

With `COCOC[C@H](C)N1C[C@@H](C)[C@H](CN(C)S(=O)(=O)c2ccc(F)cc2)OCCCC[C@H](C)Oc2ccc(NC(=O)Nc3ccccc3)cc2C1=O`, in the assay with HSkMC, the cytotoxicity call was “inactive”. Also, the growth inhibition call with S. aureus RN4220 was “inactive”.

With `CNC(=O)c1ccc2c(c1)OCO2`, in the assay on HSkMC, the cytotoxicity call is “inactive”. Besides, the growth inhibition call with S. aureus RN4220 is “inactive”.

Regarding `CN1CCN(C(=O)C[C@H]2CC[C@H](NC(=O)Cc3ccccn3)[C@@H](CO)O2)CC1`, the cytotoxicity call with HSkMC is “inactive”. The growth inhibition call in the assay with S. aureus RN4220 is “inactive”.

On to `C[C@@H]1CCCCO[C@H](CN(C)C(=O)CCCN(C)C)[C@@H](C)CN([C@@H](C)CO)C(=O)c2cc(N(C)C)ccc2O1`, for which, in the assay on HSkMC, the cytotoxicity call is “inactive”. For the same molecule, in the assay on S. aureus RN4220, the growth inhibition call was “inactive”.

As to `C[C@@H](Oc1ccccc1)c1ccn[nH]1`, the cytotoxicity call with HSkMC was “inactive”. Moreover, the growth inhibition call in the assay with S. aureus RN4220 was “inactive”.

Turning to `C[C@@H]1CN([C@H](C)CO)C(=O)c2cc(NS(=O)(=O)c3cn(C)cn3)ccc2O[C@@H](C)CCCCO[C@H]1CN(C)S(=O)(=O)c1cn(C)cn1`, the cytotoxicity call in the assay on HSkMC (human skeletal muscle cells) was “inactive”. Besides, in the assay with S. aureus RN4220, the growth inhibition call was “inactive”.
